Test results reported in PubChem BioAssay AID1508642 (National Center for Advancing Translational Sciences (NCATS), 2021).
The campaign covered roughly 43,000 compounds. About 200 (0.47%) were called active. Another 12% or so got no clear call; they are omitted. Calls come from the whole dose curve; as a rule, active = well fitted cell-killing curve with a large enough effect; inconclusive = small, poorly fitted or top-dose-only effect, or effect the other way; inactive = flat fitted curve, though single readings scatter. The list shows a part of the results.

Experiment: Cell viability qHTS assay in S16 Pmp22-F2sN cells; note: nearly all actives have a fitted effect of over 65% in size
Conditions: S16 Pmp22-F2sN Schwann cells (luciferase reporters placed in the Pmp22 gene) viability, CellTiter-Glo, 24 h; series mostly up to 57.5 µM; activity change, negative = cytotoxicity: at the top concentration
How it was run: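 Rat S16 Schwann reporter line, 24 h treatment with library compounds delivered at 23 nL per well. Cell viability by CellTiter-Glo luminescence.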
% is set by controls: 0 for no effect and ±100 for the full control effect.

| Compound | activity change, negative = cytotoxicity |
| --- | --- |
| Cc1ccc(-c2cc(C(=O)NCc3cnn(C)c3)c3cc(Br)ccc3n2)cc1 | inactive: 26.9% |
| Cc1ccc(-n2c(SCC(=O)Nc3ccc4c(c3)OCO4)nc3c([nH]c4ccccc43)c2=O)cc1 | inactive: -0.694% |
| CCCCNc1nc(Oc2ccc(OCC(N)=O)nn2)nc(N2CCOCC2)n1 | inactive: -0.612% |
| COc1ccc(CCNc2ncnc3c2c(-c2ccccc2)cn3-c2ccc(F)cc2)cc1OC | inactive: -27.5% |
| CCC(=O)C1=C(c2cccc([N+](=O)[O-])c2)N(C(=O)CC)n2c(nnc2-c2ccccc2)S1 | inactive: 6.39% |
| CCc1ccccc1N(C)C(=O)c1cnc(N2CCOCC2)c2ccccc12 | inactive: 2.42% |
| Cc1ccc(Cc2nc3ccccc3nc2SCC(=O)NCc2ccc(F)cc2)cc1 | inactive: 9.93% |
| Cc1cccc(C(=O)N2CCc3cc(CNC(=O)Cc4ccc(F)cc4)ccc32)c1 | inactive: 2.73% |
| CN(C)c1ccc(CNC(=O)C2CCN(S(=O)(=O)c3ccc4c(ccn4C)c3)CC2)cc1 | inactive: 3.92% |
| CCN(C(=O)Cn1cc(S(=O)(=O)Cc2ccccc2Cl)c2ccccc21)c1ccccc1 | inactive: -16.5% |
| Cc1ccc(C)c(N2CCN(C(=O)Cn3c(-c4cccs4)cc4ccccc43)CC2)c1 | inactive: 2.96% |
| CCOC(=O)c1ccc(NC(=O)C(CC)Sc2nc3ncccc3o2)cc1 (stereo unspecified) | inactive: -5.92% |
| Cc1ccc(N2CCN(C(=O)c3c4c(nc5ccccc35)C(=O)N(C3CCCCC3)C4)CC2)c(C)c1 | inactive: 22.2% |
| CCOC(=O)c1c(S(=O)(=O)NCC(=O)Nc2ccc(C)c(Cl)c2)c(C)n(C)c1C | inactive: -10.7% |
| CCC(C(=O)NCc1ccccc1OC)n1nc(C)n2c(cc3sccc32)c1=O (stereo unspecified) | inactive: 6.73% |
| CC(C)(C)n1cnc2cc(NCc3ccccc3Cl)ccc21 | inactive: -7.76% |
| COc1ccc(NC(=O)C2CCCN2S(=O)(=O)c2cccc3cccnc23)cc1OC (stereo unspecified) | inactive: 8.69% |
| CC(C)Oc1ccc(CNC(=O)c2ccc(NC(=O)N3CCSc4ncccc43)cc2)cc1 | inactive: 5.77% |
| CSc1ncc(C(=O)NCc2ccccc2)c(-c2ccccc2)n1 | inactive: -0.83% |
| Cc1ccccc1Cn1nnc2c(=O)[nH]c(C3CCN(C(=O)c4ccccc4)CC3)nc21 | inactive: -14.5% |
| CCOC(=O)c1cnc2ccc(C(=O)OC)cc2c1Nc1ccccc1CC | inactive: -9.25% |

| Compound | activity change, negative = cytotoxicity |
| --- | --- |
| CCOc1ccc(C2c3[nH]c4ccccc4c3CCN2C(=O)Cc2cccc(OCC)c2OCC)cc1 (stereo unspecified) | inactive: -22.8% |
| COc1ccc(-c2nc3sc(CCNC(=O)c4cccc(C(F)(F)F)c4)c(C)n3n2)cc1 | inactive: 14.3% |
| Cc1ccc(Cn2ccn(CC(=O)Nc3ccccc3C(F)(F)F)c(=O)c2=O)cc1 | inactive: -0.928% |
| CCOc1ccc(CCNC(=O)CS(=O)Cc2nc(-c3ccc(C)cc3)oc2C)cc1OCC (stereo unspecified) | inactive: 0.542% |
| CCOC(=O)c1cnc2cc(C(F)(F)F)ccc2c1N1CCN(c2ccc(F)cc2)CC1 | inactive: -6.72% |
| COc1ccccc1CNC(=O)C1CCCN(c2nn3cc(-c4ccc(F)cc4)nc3s2)C1 (stereo unspecified) | inactive: -1.43% |
| CCOCCc1nn2c(=O)cc(COC(=O)COc3ccccc3Cl)nc2s1 | inactive: -1.41% |
| Cc1ccc(NC(=O)CN2CCCN(Cc3ccccc3Cl)S2(=O)=O)c(C)c1 | inactive: -5.47% |
| COc1ccccc1CNC(=O)CCc1c(C)nc2cc(-c3ccccc3OC)nn2c1C | inactive: 9.57% |
| CC(=O)c1ccc(NC(=O)c2ccc3c(c2)N(Cc2cccc(Cl)c2)C(=O)c2ccccc2S3(=O)=O)cc1 | inactive: 9.98% |
| CCOC(=O)c1c(C)[nH]c(C)c1S(=O)(=O)N1CCC(C(=O)Nc2ccc(F)cc2F)CC1 | inactive: -19.1% |
| COc1ccc(S(=O)(=O)NCCc2nnc3ccc(SCC(=O)Nc4ccc(C(F)(F)F)cc4)nn23)cc1 | inactive: -10.2% |
| CC(=O)c1ccc(NS(=O)(=O)c2cc3[nH]c(=O)c(=O)[nH]c3cc2C)cc1 | inactive: 17.1% |
| Cc1cccc(-n2c3c(cc(-c4nc(-c5ccc(Cl)cc5)cs4)c2=O)C(=O)CC(C)(C)C3)c1 | inactive: 6.3% |
| COC(=O)c1ccc2c(=O)n(CCCCCC(=O)NCc3ccccc3)c(=O)[nH]c2c1 | inactive: 9.12% |
| CCc1ccc(NC(=O)c2cc(-c3cccs3)on2)cc1 | inactive: 2.91% |
| O=C(CN1CCSc2ccccc21)N1CCN(c2ccccc2)CC1 | inactive: -6.1% |
| CCn1cc(C2N3CC4(CC)CN2CC(CC)(C3)C4=O)c2ccccc21 (stereo unspecified) | inactive: 5.09% |
| O=C(c1cnc2cc(-c3ccccc3)nn2c1)c1cc([N+](=O)[O-])ccc1O | inactive: -13.1% |
| CCCn1c(=N)c(C(=O)NCc2cccnc2)cc2c(=O)n3cc(C)ccc3nc21 | inactive: -1.6% |
| O=C(C1CCCN(S(=O)(=O)c2cccc3nonc23)C1)N1CCN(c2cccc(Cl)c2)CC1 (stereo unspecified) | inactive: -23.4% |

| Compound | activity change, negative = cytotoxicity |
| --- | --- |
| CCOc1ccccc1CNc1ncnc2c1nc1n2CCCC1 | inactive: 1.58% |
| CSc1ccc(CCNC(=O)CCc2c(C)nc3c(-c4ccccc4)c(C)nn3c2C)cc1 | inactive: -3.48% |
| Cc1ccccc1Cn1nc(C)c(NC(=O)c2cc(-c3ccc(F)cc3)on2)c1C | inactive: 15.2% |
| Cc1cc(C)c2c(=O)c3c(oc2c1)C(=O)N(Cc1ccc(F)cc1)C3c1cccc(O)c1 (stereo unspecified) | inactive: -18.3% |
| O=C(COc1ccc(Cl)cc1)Nc1ccccc1C(=O)OCc1cc(=O)n2ccsc2n1 | inactive: -3.48% |
| CCCC(=O)NCC(c1ccc2c(c1)OCO2)N1CCOCC1 (stereo unspecified) | inactive: -3.57% |
| Cc1ccc(CNC(=O)CN(c2ccc(C(C)C)cc2)S(=O)(=O)c2c(C)n[nH]c2C)cc1 | inactive: -10.7% |
| CC(C)(C)CC(=O)Nc1nnc2n1CCS2 | inactive: -2.45% |
| COc1ccc(Cn2ccnc2SCC(=O)Nc2ccc(C)cc2C)cc1 | inactive: -3.17% |
| CC1CCN(C(=O)CN2CCSc3ccccc32)CC1 | inactive: -17.9% |
| CC(NC(=O)c1nn(C)c2c1CSc1ccccc1-2)c1ccccc1 (stereo unspecified) | inactive: 2.74% |
| O=C(Nc1ccc(SC(F)F)cc1)c1cc(-c2cccs2)on1 | inactive: -3.48% |
| COC(=O)c1sc2cccc(F)c2c1S(=O)(=O)N1CCN(c2ccccc2OC)CC1 | inactive: 6.96% |
| O=C(CCS(=O)(=O)c1cccs1)Nc1ccc(C(=O)Nc2cccc(Cl)c2)cc1 | inactive: 23.9% |
| COc1cc(OC)cc(C(=O)N2CCC(c3ccncc3)CC2)c1 | inactive: 1.16% |
| COc1ccc(CNc2ccc3cc(S(=O)(=O)N4CCCCC4)ccc3n2)cc1 | inactive: -25.9% |
| Cc1ccc(C)c(NC(=O)CN2C(=O)CSc3nc(C)cc(C)c32)c1 | inactive: -1.81% |
| O=C(Cc1ccccc1)Nc1c(C(=O)N2CCN(c3ccc(F)cc3)CC2)oc2ccccc12 | inactive: -3.19% |
| Cc1ccc(-c2cc(NC(=O)C(C)Oc3ccc(C)c(C)c3)on2)cc1 (stereo unspecified) | inactive: -19.9% |
